# Experimental data as given in PubChem BioAssay AID1030 (National Center for Advancing Translational Sciences (NCATS), 2008).
# Among all 220,000 compounds or so, about 16,000 (7.3%) were called active. Inconclusive means that the source gave no clear call. Such entries were picked first, then a sample of the others. Calls come from the whole dose curve; as a rule, active = well fitted inhibition curve with a large enough effect (not every such curve was filed as active); inconclusive = small, poorly fitted or top-dose-only effect, or another doubt; inactive = no such curve, though single readings can be large or run the other way. No potency is given beside an inconclusive call; the fits are too rough.
# Target: Aldehyde dehydrogenase 1A1 (Homo sapiens) (UniProt P00352)
# Assay: qHTS Assay for Inhibitors of Aldehyde Dehydrogenase 1 (ALDH1A1)
# Conditions: Purified ALDH1A1, NADH fluorescence, propionaldehyde substrate; series mostly up to 75.3 µM
# Potency is the fitted concentration of half-maximal effect; tags give direction and shape of the fitted curve.
# Chain of UniProt P00352 (P00352 whole entry, looked up): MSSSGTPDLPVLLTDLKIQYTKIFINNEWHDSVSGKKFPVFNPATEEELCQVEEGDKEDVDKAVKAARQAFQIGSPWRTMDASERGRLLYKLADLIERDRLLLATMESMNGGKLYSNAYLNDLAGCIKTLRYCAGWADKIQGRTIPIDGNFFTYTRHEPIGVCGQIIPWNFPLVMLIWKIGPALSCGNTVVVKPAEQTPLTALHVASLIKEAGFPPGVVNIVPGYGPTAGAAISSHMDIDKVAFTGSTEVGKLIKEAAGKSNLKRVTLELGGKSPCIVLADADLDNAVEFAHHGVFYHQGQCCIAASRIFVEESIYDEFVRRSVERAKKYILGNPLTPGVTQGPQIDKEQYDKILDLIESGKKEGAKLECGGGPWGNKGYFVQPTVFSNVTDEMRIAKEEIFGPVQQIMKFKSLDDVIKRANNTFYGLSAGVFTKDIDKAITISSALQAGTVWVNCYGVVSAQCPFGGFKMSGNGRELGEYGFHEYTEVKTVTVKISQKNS
row,Structure (SMILES),Potency
1,COc1cc(CNn2cn[nH]c2=S)cc(Cl)c1OCc1ccc(F)cc1,"inconclusive [inhibitor, single point]"
2,Cc1ccc2[nH]c3c(c2c1)CN(C(=O)CN1CCN(c2ccccc2)CC1)CC3,active: 17.8 µM
3,CCc1c(C#N)c(SCc2c(C)noc2C)nc2c1C(=O)CC(C)(C)C2,"inconclusive [inhibitor, partial curve]"
4,Cc1c(O)c(Br)c(C)c(O)c1Br (tested in a mixture with another compound),active: 1.12 µM
5,Cc1ccc(NC(=O)CSc2nnc(CNC(=O)c3ccco3)o2)cc1,"inconclusive [inhibitor, single point]"
6,Cc1ccc(C2NC(=O)NC3=C2CCc2ccccc23)cc1 (stereo not drawn),"inconclusive [inhibitor, partial curve]"
7,CCNC(=O)N1c2ccc(OCC)cc2C(C)=CC1(C)C,"inconclusive [inhibitor, partial curve]"
8,Cc1ccc(C2NC(=O)c3ccccc3N2)s1 (stereo not drawn),"inconclusive [inhibitor, partial curve]"
9,COCCSc1nnc(NC(=O)CSCc2ccccc2)s1,"inconclusive [inhibitor, single point]"
10,Cc1oc2c(c1C(=O)NC(Cc1c[nH]c3ccccc13)C(=O)O)CCCC2 (stereo not drawn),inactive
11,CC(=O)Nc1ccc(Oc2ccc3nc(C)[nH]c3c2)cc1,"inconclusive [inhibitor, single point]"
12,Cc1ccc(S(=O)(=O)Nc2nc3ccccc3nc2NCc2ccco2)cc1,"inconclusive [inhibitor, single point]"
13,CCCCN(Cc1cc2cc(OC)ccc2[nH]c1=O)C(=O)c1ccccn1,"inconclusive [inhibitor, partial curve]"
14,O=C(CSc1ncn(-c2ccccc2)n1)N1CCN(c2ccccc2)CC1,active: 14.1 µM
15,CN(C)S(=O)(=O)c1cccc(NC(=O)CSc2nc3ccccc3n2-c2ccccc2)c1,"inconclusive [inhibitor, partial curve]"
16,COc1ccc(-c2c(C)nn3c(N4CCC(C(=O)NCCN(C)C)CC4)cc(C)nc23)cc1OC,"inconclusive [inhibitor, single point]"
17,Cc1ccc(C)c(-n2cc[nH]c2=S)c1,"inconclusive [inhibitor, single point]"
18,COc1ccc([C@@H]2[C@H]3C(=O)N(c4cccc(C(F)(F)F)c4)C(=O)[C@H]3ON2C)cc1,active: 14.1 µM
